From a compilation of properties of binary mixtures (doi:10.1016/j.fluid.2015.06.043)
Some of these densities may be calculated back from excess volumes.

Experiment: xn = mol fraction of the nth substance listed
Conditions: 101 kPa

SMILES: O + CC[n+]1ccccc1.O=S(=O)([O-])C(F)(F)F
- mass density (283.15 K, x2 = 0): 999.7 kg/m3
- mass density (333.15 K, x2 = 0): 983.2 kg/m3
- mass density (343.15 K, x2 = 0): 977.8 kg/m3

SMILES: CC[n+]1ccccc1.O=S(=O)([N-]S(=O)(=O)C(F)(F)F)C(F)(F)F + O
- mass density (283.15 K, x2 = 0.0043): 1551.6 kg/m3
- mass density (283.15 K, x2 = 0.087): 1546.8 kg/m3
- mass density (293.15 K, x2 = 0.0043): 1541.4 kg/m3
- mass density (293.15 K, x2 = 0.087): 1536.6 kg/m3
- mass density (298.15 K, x2 = 0.0043): 1536.4 kg/m3
- mass density (303.15 K, x2 = 0.0043): 1531.4 kg/m3
- mass density (303.15 K, x2 = 0.087): 1526.6 kg/m3
- mass density (313.15 K, x2 = 0.0043): 1521.5 kg/m3
- mass density (313.15 K, x2 = 0.087): 1516.6 kg/m3
- mass density (333.15 K, x2 = 0.0043): 1501.9 kg/m3
- mass density (333.15 K, x2 = 0.087): 1497 kg/m3
- mass density (343.15 K, x2 = 0.0043): 1492.2 kg/m3
- mass density (353.15 K, x2 = 0.087): 1477.5 kg/m3

SMILES: CC[n+]1ccccc1.O=S(=O)([O-])C(F)(F)F + O
- mass density (283.15 K, x1 = 0.067): 1176.4 kg/m3
- mass density (283.15 K, x1 = 0.183): 1288.1 kg/m3
- mass density (293.15 K, x1 = 0.183): 1280.2 kg/m3
- mass density (293.15 K, x1 = 0.498): 1366.1 kg/m3
- mass density (293.15 K, x1 = 0.689): 1387.2 kg/m3
- mass density (293.15 K, x1 = 0.893): 1401.9 kg/m3
- mass density (293.15 K, x1 = 1): 1409 kg/m3
- mass density (298.15 K, x1 = 0.183): 1276.2 kg/m3
- mass density (298.15 K, x1 = 0.689): 1383 kg/m3
- mass density (298.15 K, x1 = 0.893): 1397.7 kg/m3
- mass density (298.15 K, x1 = 1): 1404.8 kg/m3
- mass density (303.15 K, x1 = 0.067): 1163.7 kg/m3
- mass density (303.15 K, x1 = 0.183): 1272.1 kg/m3
- mass density (303.15 K, x1 = 0.498): 1357.8 kg/m3
- mass density (303.15 K, x1 = 0.689): 1378.8 kg/m3
- mass density (303.15 K, x1 = 0.893): 1393.5 kg/m3
- mass density (303.15 K, x1 = 1): 1400.6 kg/m3
- mass density (313.15 K, x1 = 0.067): 1156.9 kg/m3
- mass density (313.15 K, x1 = 0.183): 1264 kg/m3
- mass density (313.15 K, x1 = 0.498): 1349.4 kg/m3
- mass density (313.15 K, x1 = 0.893): 1385.2 kg/m3
- mass density (313.15 K, x1 = 1): 1392.3 kg/m3
- mass density (323.15 K, x1 = 0.067): 1149.7 kg/m3
- mass density (323.15 K, x1 = 0.183): 1255.7 kg/m3
- mass density (323.15 K, x1 = 0.498): 1341.1 kg/m3
- mass density (323.15 K, x1 = 0.689): 1362.3 kg/m3
- mass density (323.15 K, x1 = 0.893): 1377 kg/m3
- mass density (323.15 K, x1 = 1): 1384.1 kg/m3
- mass density (333.15 K, x1 = 0.067): 1142.2 kg/m3
- mass density (333.15 K, x1 = 0.183): 1247.3 kg/m3
- mass density (333.15 K, x1 = 0.498): 1332.8 kg/m3
- mass density (333.15 K, x1 = 0.689): 1354 kg/m3
- mass density (333.15 K, x1 = 0.893): 1368.8 kg/m3
- mass density (333.15 K, x1 = 1): 1376 kg/m3
- mass density (343.15 K, x1 = 0.183): 1238.7 kg/m3
- mass density (343.15 K, x1 = 0.498): 1324.4 kg/m3
- mass density (343.15 K, x1 = 0.893): 1360.7 kg/m3
- mass density (343.15 K, x1 = 1): 1367.8 kg/m3
- mass density (353.15 K, x1 = 0.067): 1126.3 kg/m3
- mass density (353.15 K, x1 = 0.498): 1316.1 kg/m3
- mass density (353.15 K, x1 = 0.689): 1337.7 kg/m3
- mass density (353.15 K, x1 = 1): 1359.8 kg/m3
